Results published in publication PMC4336329 (PLoS ONE, 2015).
Screen size: about 310,000 compounds; about 2,200 (0.71%) showed an effect of 50% or more. Effects have a minus sign here. This is one part of the list.

The compounds below were run against human ether-à-go-go-related gene (hERG) potassium channel (human, UniProt Q12809) (assay: primary screen, population patch clamp on CHO cells stably expressing hERG).
human ether-à-go-go-related gene (hERG) potassium channel, sequence (Q12809 whole entry, looked up): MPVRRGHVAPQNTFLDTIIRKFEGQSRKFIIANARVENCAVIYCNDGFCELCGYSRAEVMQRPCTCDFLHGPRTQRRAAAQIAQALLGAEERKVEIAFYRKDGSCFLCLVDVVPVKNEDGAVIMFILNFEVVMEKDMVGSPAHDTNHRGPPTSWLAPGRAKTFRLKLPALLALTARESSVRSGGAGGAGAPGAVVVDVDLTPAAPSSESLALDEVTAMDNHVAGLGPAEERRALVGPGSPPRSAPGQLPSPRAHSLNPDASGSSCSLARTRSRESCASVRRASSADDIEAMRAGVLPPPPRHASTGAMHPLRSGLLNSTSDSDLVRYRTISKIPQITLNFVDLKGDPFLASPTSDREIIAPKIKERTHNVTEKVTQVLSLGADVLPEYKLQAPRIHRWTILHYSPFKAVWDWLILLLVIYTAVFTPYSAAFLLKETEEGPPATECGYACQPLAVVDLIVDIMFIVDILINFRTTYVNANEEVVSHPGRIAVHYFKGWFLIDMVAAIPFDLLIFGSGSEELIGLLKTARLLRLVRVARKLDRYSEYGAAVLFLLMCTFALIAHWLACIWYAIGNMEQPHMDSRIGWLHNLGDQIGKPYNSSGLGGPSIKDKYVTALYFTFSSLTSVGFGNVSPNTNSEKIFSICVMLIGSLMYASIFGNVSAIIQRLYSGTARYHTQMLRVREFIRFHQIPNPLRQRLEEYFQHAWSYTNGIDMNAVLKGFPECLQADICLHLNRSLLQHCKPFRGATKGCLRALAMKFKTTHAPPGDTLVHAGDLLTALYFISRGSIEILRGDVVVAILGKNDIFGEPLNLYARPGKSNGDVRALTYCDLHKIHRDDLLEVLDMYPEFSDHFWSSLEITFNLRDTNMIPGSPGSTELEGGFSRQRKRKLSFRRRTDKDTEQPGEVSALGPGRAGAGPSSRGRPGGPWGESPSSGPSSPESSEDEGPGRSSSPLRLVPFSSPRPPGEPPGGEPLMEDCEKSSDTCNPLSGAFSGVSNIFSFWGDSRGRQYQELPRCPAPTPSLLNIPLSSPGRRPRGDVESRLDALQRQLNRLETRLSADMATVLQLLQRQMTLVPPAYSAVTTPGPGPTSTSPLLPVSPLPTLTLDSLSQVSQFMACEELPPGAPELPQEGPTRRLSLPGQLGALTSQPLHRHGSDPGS

SMILES | hERG current change (%, negative = inhibition) at 1uM [%]
O=C(OCC(=O)N1CCCCC1)c1cc2ccccc2cc1O | 8.26
O=C(Cc1ccccc1)Nc1cccc(NC(=O)c2ccccc2)c1 | 15.4
CN1CCN(C(=O)/C(=C/c2cn(S(=O)(=O)N(C)C)c3ccccc23)NC(=O)c2ccccc2Cl)CC1 | 14.3
O=C(CCNS(=O)(=O)c1ccccc1C(F)(F)F)NCCCSc1ccccc1 | -2.39
CCOC(=O)c1ccc(CNC(=O)C(Cc2c[nH]c3ccccc23)NC(C)=O)o1 (stereo not shown) | -6.39
CCC(C)NC(=O)c1oc2ccc(S(=O)(=O)N3CCC4(CC3)OCCO4)cc2c1C (stereo not shown) | 9.01
CC1CCOC(c2coc3ccccc3c2=O)O1 (stereo not shown) | 6.57
CCc1cccc(NC(=O)C2CCCN(S(=O)(=O)c3ccc4[nH]c(=O)ccc4c3)C2)c1 (stereo not shown) | -0.861
CC(C)(C)c1cc(NS(=O)(=O)c2ccc3c(c2)OCCO3)on1 | 12.4
CCOC(=O)CNC(=O)CSc1nc2cccnc2n1CC | 2.76
O=C(O)c1ccc(N=Cc2c(O)ccc3oc4c(c23)CCCC4)cc1 | 9.7
Cc1ccc(N(C(C)C(=O)Nc2ccc(S(=O)(=O)N3CCOCC3)cc2)S(C)(=O)=O)cc1 (stereo not shown) | 6.43
Cc1cc2oc(=O)cc(CN3CCOCC3)c2c(C)c1Cl | 0.624
CCc1ccc(C(=O)NNC(=O)c2cc(S(=O)(=O)N(C)C)ccc2N2CCCC2)cc1 | 3.17
CC1CN(C(=O)c2scc3c2OCCO3)CC(C)O1 (stereo not shown) | 15.6
CN(Cc1cccs1)C(=O)C1CC(=O)N(Cc2ccccc2)C1 (stereo not shown) | 8.49
Cc1ccc2nc(SCC(=O)N(CC(C)C)c3c(N)n(Cc4ccccc4)c(=O)[nH]c3=O)[nH]c2c1 | 13.2
CCN(CC)c1ccc(O)c(C=Nc2ccc(C)c(C)c2)c1 | 10.8
COc1cccc(OCC(O)CN2CCN(CCO)CC2)c1.Cl (stereo not shown) | -6.85
O=C(NCCCNC(=O)c1ccc(Cl)cc1Cl)c1ccccn1 | 10.9
COc1ccccc1-n1c(SCC(=O)c2ccc(O)cc2O)nc2cc([N+](=O)[O-])ccc21 | 19.1
CCn1nc(C(=O)OCC(=O)Nc2nc(-c3ccc(OC)cc3)cs2)c2ccccc2c1=O | 15.7

SMILES | hERG current change (%, negative = inhibition) at 1uM [%]
CC(C)CC(=O)Nc1ncnc2c1C(=O)CC(C)(C)C2 | 9.63
Cc1ccc(NS(=O)(=O)c2ccc3[nH]c(=O)oc3c2)cc1Cl | 8.36
CCNS(=O)(=O)c1ccc(CCC(=O)N2CCN(Cc3ccccc3)CC2)cc1 | -1.42
OCCOCCn1c(C(CO)Nc2nc(-c3ccc(F)cc3)cs2)nc2ccccc21 (stereo not shown) | -3.44
COc1ccc2oc(C(=O)N(C)CCOc3ccc(Cl)cc3)c(C)c2c1 | -7.18
CCOC(=O)c1cncc(C(=O)O)c1 | 11.9
Cl.O=C(NCCCN1CCOCC1)c1c(O)c2ccccc2[nH]c1=O | -12.5
COc1ccc(S(=O)(=O)Nc2ccc3cn[nH]c3c2)cc1[N+](=O)[O-] | 7.09
CCCn1c2ccc(C)cc2c2n[nH]c(=S)nc21 | 15.3
Cc1ccc(S(=O)(=O)c2cc3ccccc3oc2=O)cc1 | 8.8
COc1ccc(NC(=O)Nc2ccc(N3CCCC3=O)cc2)cc1OC | 7.67
CC(=O)Oc1ccc(C(=O)Nc2cc(C)ccc2NC(=O)COc2ccccc2)cc1 | 15.2
Cc1ccc(-n2c(N)c(C(=O)N3CCN(C)CC3)sc2=S)cc1 | -13.5
COc1ccc(/C=N\N=C2/SC(CC(=O)O)C(=O)N2c2ccc(O)cc2)cc1OC (stereo not shown) | -0.926
CCc1cc2c(NCCC(=O)O)nc(C)nc2s1 | 17.4
CCOC(=O)C1=C(CNCCOc2ccc(OC)cc2)NC(=O)NC1c1ccc2c(c1)OCO2 (stereo not shown) | 8.12
CCOc1ccccc1N1CCN(C(=S)NCc2ccco2)CC1 | -4.45
COc1ccc(C(OC(=O)c2c(C)noc2C)C(=O)NC2CCCC2)cc1 (stereo not shown) | 3.91
C/C(=N\Nc1ccc(Cl)c(Cl)c1)c1ccc(-n2ccnc2)cc1 | 10.1
CCOc1ccc(S(=O)(=O)N2CCCCC2)c2ccccc12 | 9.79
COc1cc(C(c2c(C)[nH][nH]c2=O)c2c(C)[nH][nH]c2=O)cc(OC)c1OC | 9.75
Cc1nc(CS(=O)(=O)c2ccccc2)cc(N2CCOCC2)n1 | 1.81

SMILES | hERG current change (%, negative = inhibition) at 1uM [%]
COc1ccc(C(=O)NCc2ccon2)cc1OC1CCN(C(C)C)CC1 | 3.39
CC(/C=C/c1ccccc1)=N\NC(=O)C1CC1(C)c1ccccc1 (stereo not shown) | -0.841
CC(NC(=S)Nc1ccc(Cl)cc1Cl)C(c1cccs1)N1CCCC1 (stereo not shown) | 0.936
COc1cc2c(cc1OC)C(c1ccc([N+](=O)[O-])cc1)NCC2 (stereo not shown) | 15.3
CC(O)Cn1c(N2CCCC2)nc2c1c(=O)n(C)c(=O)n2C (stereo not shown) | 13.2
CCC(Sc1nc2ccccc2s1)C(=O)Nc1nnc(C)s1 (stereo not shown) | 6.35
COc1ccccc1/C=C/C=N/NC(=O)c1ccncc1 | 5.96
CS(=O)(=O)Nc1ccc(C(=O)Nc2ccccc2Sc2ccccc2)cc1 | -6.59
CCOc1ccccc1NC(=O)Cn1c(=O)oc2cc(Cl)ccc21 | 14.8
CCCCCNC(=O)C(C#N)c1nc2ccccc2nc1N1CCCC1 (stereo not shown) | 14.8
CCN(CC(=O)NCc1cccs1)C(=O)/C=C/c1ccc(C)cc1 | 0.956
O=C(NC1CCCN(Cc2ccccc2F)C1)C1CCC1 (stereo not shown) | 16.9
CCOC(=O)N1CCN(CC(O)COc2c(OC)cccc2OC)CC1.Cl (stereo not shown) | 7.74
COc1cccc(NC(=O)CN(C)S(=O)(=O)c2ccc3c(c2)CCC(=O)N3)c1 | -8.52
Cc1cc(C(=O)Nc2c(C)nn(Cc3ccccc3)c2C)on1 | 7.37
CCOc1cc(/C=N/NC(=O)Cc2ccc(C(F)(F)F)cc2[N+](=O)[O-])ccc1O | 3.92
C/C(CCc1ccco1)=N\NC(=O)CNc1c(Br)cc(Br)cc1Br | 25.3
CN1CCc2c(C#N)c(N3CCCCC3)nc(NCc3ccccc3)c2C1 | 15.1
COc1cc(C(=O)NCC2CCCO2)ccc1OCc1c(C)noc1C (stereo not shown) | 12.5
CCOC(=O)N1CCN(C(=O)c2cnc(Nc3ccccc3OC)c3ccccc23)CC1 | 0.401
CC(NC(=O)c1cc2c(s1)CCCC2)C(C)(C)C (stereo not shown) | -2.23
CC1CCCN(CCCNC(=O)c2cc3c(s2)-c2ccccc2OC3)C1 (stereo not shown) | -48.5

SMILES | hERG current change (%, negative = inhibition) at 1uM [%]
CC1CCCC(C)N1C(=O)Cn1c(SCC(=O)NCc2ccc3c(c2)OCO3)nc2ccccc21 (stereo not shown) | -11.9
COc1ccccc1CNC(=O)C1CCC(CNS(=O)(=O)c2cccc3cccnc23)CC1 (stereo not shown) | 14.4
COc1cccc(C(=O)NCCS(=O)(=O)NCCc2ccc(OC)c(OC)c2)c1 | 7.37
CC1CCCC(NC(=O)COC(=O)Cc2c[nH]c3ccccc23)C1C (stereo not shown) | 5.43
CCOC(=O)N1CCN(C(=O)CNC(=O)Cn2cnc3ccccc3c2=O)CC1 | 14
Cc1ccc(C)c(C(=O)CSc2nnnn2-c2cccnc2)c1 | 6.31
CC(=O)Nc1ccc(C(=O)NNC(=O)Cc2ccccc2)cc1 | 16.5
Cc1ccc(NC(=O)c2cc(-c3ccco3)on2)cc1 | 0.76
COc1nc(NC2CCCCC2)nc(N2CCCCCC2)n1 | 11.7
COc1cccc(CNC(=O)[C@H](C)NC(=O)C2CCN(S(=O)(=O)c3ccccc3)CC2)c1 | 10.6
CC(C)(Cc1ccc(O)cc1)NC(=O)CC(=O)N/N=C/c1ccc(Cl)cc1 | 13.4
O=c1[nH]c2ccccc2nc1N1CCOCC1 | -6.49
C=CCn1c(N)cc(=O)nc1SCC(=O)Nc1ccccc1C(N)=O | 12.4
CCN(CC)CCn1c(SCC(=O)Nc2ccc(F)cc2)nc2c(sc3ccccc32)c1=O.Cl | 4.95
O=C1NC(c2cccc(Br)c2)=N/C1=C\c1ccco1 | 0.597
COCCNC(=S)N/N=C/c1ccc(OCc2ccc(C(=O)OC)cc2)cc1 | 8.3
COc1ccc(CC(=O)NC2CC(C)(C)NC(C)(C)C2)cc1OC.Cl | 12
CC1CN(S(=O)(=O)c2ccc(F)cc2)CN1C(=O)N1CCOCC1 (stereo not shown) | 13.8
Cc1cc(C)cc(NC(=O)C2C3C=CC4(O3)C2C(=O)N(CCCN2CCCC2)C4C(=O)NC2CCCC(C)C2C)c1 (stereo not shown) | 8.74
CCc1nc(N2CCCCC2C)c2oc3ccccc3c2n1.Cl (stereo not shown) | 20.9
CCC(CC)NC(=O)c1cc(S(=O)(=O)N2CCCCC2)ccc1N1CCOCC1 | -6.91
CC(C(=O)O)c1ccc(C(=O)c2cccs2)cc1 (stereo not shown) | 1.86
